PubChem BioAssay AID894 (National Center for Advancing Translational Sciences (NCATS), 2007)
Where “and” joins values, the source holds several entries; their conditions need not be identical. Equal values may be shown once. In all, about 150,000 compounds went through this assay and about 6,500 (4.3%) were called active. This list was built around the results that the source calls inconclusive (neither active nor inactive); the mix of calls is not that of the screen. Calls follow the shape of the dose curve; as a rule, active = well fitted inhibition curve with a large enough effect (not every such curve was filed as active); inconclusive = small, poorly fitted or top-dose-only effect, or another doubt; inactive = no such curve, though single readings can be large or run the other way. A potency beside an inconclusive call is a rough fit, not a confirmed value.

Target: 15-hydroxyprostaglandin dehydrogenase [NAD(+)] (Homo sapiens) (UniProt P15428)
UniProt P15428, sequence (P15428 whole entry, looked up): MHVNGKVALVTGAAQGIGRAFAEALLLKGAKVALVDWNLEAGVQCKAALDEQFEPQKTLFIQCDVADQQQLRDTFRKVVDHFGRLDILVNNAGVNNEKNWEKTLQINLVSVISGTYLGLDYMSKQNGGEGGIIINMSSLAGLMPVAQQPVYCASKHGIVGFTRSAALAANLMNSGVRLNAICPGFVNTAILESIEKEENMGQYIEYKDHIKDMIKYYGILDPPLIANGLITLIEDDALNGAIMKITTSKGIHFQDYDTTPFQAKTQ
Assay: qHTS Assay for Inhibitors of HPGD (15-Hydroxyprostaglandin Dehydrogenase)
Conditions: purified HPGD, NADH fluorescence kinetic, PGE2 substrate; activity change, negative = inhibition: hits give low values
Summary of the method: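 NADH formation kinetics: reaction with 30 uM PGE2 and 1 mM NAD+ (final), 20 nM enzyme, Tris-HCl pH 8 with Tween 20, after 15 min compound preincubation at room temperature. Fluorescence change, last versus first of five reads.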
% is scaled to controls: 0 for no effect and ±100 for the full control effect; potency is read from the fitted curve at half-maximal effect; tags tell the direction and shape of the fitted curve.

Potency, active:
Cc1nc2sc3c(c2c2nnc(SCC(=O)NCc4ccco4)n12)CCCC3 28.2 µM
Cc1cc(C(=O)CSc2nnc(C3COc4ccccc4O3)n2C)c(C)n1-c1ccc(F)cc1 (stereo not given) 28.2 µM
CC(C)=CC(=O)NCCc1ccccc1 20 µM
O=C(Nc1ccon1)c1sc2ccccc2c1Cl 15.8 µM
COc1ccc(CNC(=O)c2cnc(C)cn2)cc1 25.1 µM
CCOC(=O)COc1ccc(C(=O)c2ccccc2)c(O)c1 15.8 µM
O=c1cc(-c2ccccc2)[nH]c2ccccc12 31.6 µM and 12.6 µM
COc1ccccc1Oc1nc2c(c(=O)n(Cc3ccccc3F)c(=O)n2C)n1C 14.1 µM

Potency, inconclusive:
Oc1ccccc1/C=N/Nc1cccc2cccnc12 31.6 µM [inhibitor, single point]
COc1ccc(-c2cc(-c3cccs3)c(C#N)c(SCC(=O)NCc3ccco3)n2)cc1 28.2 µM [inhibitor, partial curve]
COC(=O)c1[nH]c2cccc(OC)c2c1NC(=O)CCN1CCN(c2cccc(Cl)c2)CC1 20 µM [inhibitor, single point]
Cc1ccc(S(=O)(=O)NNC(=O)c2ccccc2O)cc1 35.5 µM [inhibitor, single point]
COCCNC(=O)c1ccc(Cl)c(Cl)c1 31.6 µM [inhibitor, partial curve]
COc1ccc(NC(=O)c2cccc(Cn3cc(Br)cn3)c2)cn1 20 µM [inhibitor, partial curve]
CSc1ccc(/C=N/n2nnnc2N)cc1 31.6 µM [inhibitor, partial curve]
COC(=O)CSc1nc(N)c(C#N)c(C(C)C)c1C#N 25.1 µM [inhibitor, single point]
COc1ccc(OC)c2c1CCC2=O 25.1 µM [inhibitor, single point]
CCn1c(CCCNC(=O)c2cccs2)nc2ccccc21 25.1 µM [inhibitor, single point]
COc1ccc(-c2cc3ccccc3oc2=O)cc1NC(=O)c1cccnc1 20 µM [inhibitor, partial curve]
COc1cccc(C2=CC(c3ccccc3)n3nnnc3N2)c1 (stereo not given) 17.8 µM [inhibitor, partial curve]
Cc1cc(=O)n(C)c(=O)n1CCCCCCOc1cccc([N+](=O)[O-])c1 39.8 µM [inhibitor, single point]
CC(CCc1ccccc1)NC(=O)c1cccs1 (stereo not given) 35.5 µM [inhibitor, single point]
COCCn1c(C)cc(C2=NNC(=Nc3ccc(F)cc3)SC2)c1C 31.6 µM [inhibitor, single point]
CN1C(=O)c2ccccc2N(C)C1c1ccc2c(c1)OCO2 (stereo not given) 7.08 µM [inhibitor, full curve]
CCn1c(-c2ccc(-c3ccccc3)cc2)c[nH]c1=S 10 µM [inhibitor, partial curve]
CC1=C(C(=O)OCCOC(C)C)C(c2cccnc2)C2=C(CCCC2=O)N1 (stereo not given) 28.2 µM [inhibitor, partial curve]
CCOc1nc(-c2ccc(OC)cc2)ccc1-c1noc(-c2cc(OC)c(OC)c(OC)c2)n1 15.8 µM [inhibitor, partial curve]
O=C1NC2=C(CCc3ccccc32)C(c2ccc(Br)cc2)N1 (stereo not given) 25.1 µM [inhibitor, partial curve]
Cc1ccc([C@@H]2C3COCC=C3C(C#N)=C(N)C2(C#N)C#N)o1 (stereo not given in full) 12.6 µM [inhibitor, partial curve]
Cc1nn(-c2ccccc2)c(C)c1/C=N/NC(=O)c1cc(-c2ccc(Br)s2)[nH]n1 39.8 µM [inhibitor, single point]
Cc1ccc2[nH]c3c(NCc4ccco4)ncnc3c2c1 28.2 µM [inhibitor, single point]
O=C(CCCn1c(=S)[nH]c2cc3c(cc2c1=O)OCO3)N1CCc2ccccc2C1 15.8 µM [inhibitor, partial curve]
Cc1ccccc1CN(c1ccc(C(=O)N2CCc3ccccc3C2)cc1)S(C)(=O)=O 3.98 µM [inhibitor, full curve]
O=C(COc1ccccc1F)Nc1nnc(-c2ccncc2)s1 28.2 µM [inhibitor, partial curve]
COc1ccc(-c2[nH]ncc2/C=C(/C#N)C(=O)NC2CCCCCC2)cc1 39.8 µM [inhibitor, single point]
CC1CN(C(=O)c2cc3c(s2)CCC3)CC(C)O1 (stereo not given) 15.8 µM [inhibitor, partial curve]

Activity change, negative = inhibition, inactive:
CCn1c(SCC(=O)c2ccc3ccccc3c2)nnc1-c1cccs1 -18.4%
Cc1ccc(NC(=O)/C=C\C(=O)O)c([N+](=O)[O-])c1 -6.78%
CC(C)(C)c1nn(-c2ccccc2)c2[nH]c(=O)c(CNc3ccc4c(c3)OCCO4)cc12 -12.9%
CC(=O)OC/C=C(C)/C=C/C=C(C)/C=C/C1=C(C)CCCC1(C)C -8.75% and -5.58%
CCC(NC(=O)NCc1ccccc1)(C(F)(F)F)C(F)(F)F -12.8%
C=CCn1c(-c2ccc(OC)c(OC)c2)n[nH]c1=S -2.9%
Cc1cc(C)n(-c2ccc(C(=O)OCC(=O)Nc3ccc([N+](=O)[O-])cc3)cc2)n1 -10.3%
COC(=O)COc1ccc2c(-c3cccc([N+](=O)[O-])c3)cc(=O)oc2c1 -17.3%
COCCN1C(=O)C(=O)/C(=C(/O)c2ccc3c(c2)OCCO3)C1c1ccc(C(=O)OC)cc1 (stereo not given) -22.5%
